This is an account of results in the RNAGym collection of RNA variant scans (doi:10.7554/elife.90254).

The source gives no read counts; variants with many changes may rest on few reads.

B1: OR4K15 (parent)
chain: GUUAACGGUCAUAGGCCAUGGAAACUAGGAGCACCAUUUCGCUGCCAGUGAAGAAAUGAACAAAGAAAAUCUGGGCCAGGCAGGCAUCAAAAGAAAUAGUCUUGCGCUCAACCAGAAAGUCUGUAAUCAUUUUAAGGGUA

The data set covers variants of B1. The experiment in a line: self-cleavage, relative activity (ratio to wild type); higher = more cleavage; in vitro, sequencing; the parent is a self-cleaving ribozyme.
Consider A62U A94G G138A, for which the self-cleavage amounted to 1.59. For A64G A78G A140G, the self-cleavage came out at 0.19. The same measure for A66G A68G A78G U102C C113U A135G: 0.02; for A66G A110U U130C: 0.87.

Turning to A66G A67G U108A, the self-cleavage amounted to 0.02. The same measure for A64C C77U C88U: 1.66.

Turning to A62G U108G U131C, the self-cleavage came out at 0.

Regarding A63G A117G U130C, the self-cleavage was 1.42. The same measure for A63G A82U U122A: 0.19. The same measure for A66G U70C A92G U102C: 0.32. For the variant A62U A91G A129C, the self-cleavage is 0.91. For the variant A63G U87A A89G, the self-cleavage is 1.7.

Take A64G U70C C71U A78G A82C: the self-cleavage was 0.25. Next, A66G A69G A116G: 1.16; A63G G80U A117G: 0.04. Next, A64G A90U A135G: 1.91. A63G A67G A129U: the self-cleavage was 0.95.

On to A63G A69G A82G, for which the self-cleavage was determined as 0.28.

Take A64G A86U A92G U100C A118G: the self-cleavage is 1.73. As to A66G A129U G137U, the self-cleavage is 1.66.

For the variant A64G A90G A91G A92G A96U A114U, the self-cleavage is 0.05. With A63G A67G U120C, the self-cleavage came to 1.16. The same measure for A63U A95G A110C: 0.51; for A64G U72C U100A: 0.07. The same measure for A64G A118G A125C: 0.17; for A62U U87G A91G A96G A126U: 0.1. The same measure for A64G A91U A96G U100C: 2.44; for A63G A78G A94G A98G: 0.16.

For the variant A64G U100C A140G, the self-cleavage was 2.28. Consider A64G U72C G83U, for which the self-cleavage turned out to be 0.43. The same measure for A64G U108C A110C A118G: 0.01.

For A63U A69G A82U, the self-cleavage stood at 0.27. In the case of A63G A95G U100A A116G A126G, the self-cleavage turned out to be 0.42.

As for A63G A68G A90U G104A, the self-cleavage stood at 0.03.

In the case of A63G U87C A92C A94G U102C U133C, the self-cleavage came to 1.93.

Consider A63U A67G A68U, for which the self-cleavage turned out to be 1.59. Next, G65A U100A U102A U130G: 0.03. The same measure for A63G A114U A125G: 0.01; for A63U A96G U103G U108C: 0.01; for A62U A92G A110U: 0.43. Next, A66G A117U U139G: 1.21; A62U U70C U127C: 0.32. In the case of A64G C105U A118G, the self-cleavage was 0.19. The same measure for A64C A94G A116G A134G: 0.22; for A63G U103C U120C: 0.28. The same measure for A66G A117G U120C: 2.1. Next, A63G A68G U130C: 0.41. Consider A66G A129G U130C, for which the self-cleavage came to 1.4.

A63G A92G U132C G137U: the self-cleavage was determined as 1.75. Next, A63G G83A U97A: 2.59.

A62G U120C A135U: the self-cleavage was determined as 0.51. On to A64U A68G A94G C105U, for which the self-cleavage is 0.05. Next, A63G U120A U122C: 0.89; A62U G79A A98U: 0.09.

Take A64G A68G A90G A111G A125C: the self-cleavage is 0.01. With A66G A67G C105A, the self-cleavage came out at 0.04. The same measure for A63G U72C A92G: 0.21; for A64C A69G A118G U122C: 0.55; for A62U A69U U133C: 1.94. Next, A66G C88A A117C: 0.3; A63G A94G U100C: 2.61.

Turning to A62U A66G A86U A91G A92G, the self-cleavage turned out to be 1.17. Next, A66G A78G U108A: 0; A66G A78G U108C: 0.03; A64G A111G U127C: 0.01. The same measure for A63U A94G A116U: 0.23; for A63G A64G A96G: 0.74; for A64G A90G A95G: 2.03. The same measure for A66G A90G U139A: 1.78; for A64G U70C A78U U97C U102C U103C: 0.04. Consider A63U A110G A125G, for which the self-cleavage was 0.1.

In the case of A66G A89U A92G, the self-cleavage was found to be 1.47.

With A64G A114U U120C, the self-cleavage worked out at 0.08.

A63U A89U A91G A95U: the self-cleavage was determined as 1.91. Next, A63G A95G U132C: 1.98. Next, A63G A91G U127C: 1.34. A63G U72C A126C: the self-cleavage was 0.11. Regarding A64G A94G A96U A111G U127C, the self-cleavage came to 0.03. Take A63G A96G U102C U122G: the self-cleavage worked out at 1.66. Next, A64G U70C U108C A114G U139C: 0; A64U U124A A126G: 0.6.

As to A66G A91G U122G, the self-cleavage worked out at 2.53. Next, A63G A68C A118G U122C G137A: 0.98; A66G A78G A118G: 0.08; A64G A66U A86U: 2.24. Next, A64G A95G C113U: 0.29.

For A63G A95G A98U, the self-cleavage is 2.67. Next, A63G A78G A98U A110G: 0.01; A63G A66U A86G: 2.04. Turning to G65U U72A A111G, the self-cleavage was found to be 0.02. The same measure for A63G A86G A116G A117G U122C: 0.1. The same measure for A64G A111U A116G A118G U124C: 0; for A64G A90G A116U: 0.11. As to A63G A95G U130C, the self-cleavage turned out to be 1.71.

For A64U A69G A86G, the self-cleavage worked out at 1. Next, A66G A95G A118G A125G: 0.44. The same measure for A63C A82G A114U: 0.05; for A63G G80A U103C: 0.16.

Turning to A66G A116U U120C, the self-cleavage came out at 0.34. Next, A64G U87C A111G A118U: 0; A64G A67U U87A: 1.28; A63G U100G C112G: 0.02.

As to A64U G84A A89C, the self-cleavage was found to be 1.49. Next, A64G C85A A86G: 1.49; A66G A90C A117G: 1.46. Consider A63G U102C A116G, for which the self-cleavage amounted to 1.93.

Regarding A63G A116G A117U G119A, the self-cleavage is 1.28.

With A64G U100A A110G A135G, the self-cleavage stood at 0.09. Turning to A64G A116U A134G A135G, the self-cleavage was found to be 0.03. Next, A64U U72C A94G: 0.02. The same measure for A66G A78U A90G: 0.18; for A64G U97C A98G U103C: 0.61; for A66G A82U A90G: 0.03. The same measure for A66G A67G U122C: 1.25. As to A63G A67U A96G U108C, the self-cleavage amounted to 0. Take A66G C121A A135U: the self-cleavage amounted to 2.41. Next, A64G G80A A96G: 0.21.

Regarding A62G U108A A126G U132A U139C, the self-cleavage came out at 0. As for A62U U87C U108C, the self-cleavage is 0.01.

On to A63G A68G A95G, for which the self-cleavage was determined as 1.48. Next, A63G A68G A78U U100C: 0.88.

With A63U A94G A96G, the self-cleavage turned out to be 1.42.

With A62U G65A U127A, the self-cleavage was found to be 2.8. The same measure for A66G A95G U131C A134G: 1.35; for A62G U120C U130A: 0.73; for A62G U120C U130C: 0.76.

Consider A63G A89U A95G U108G A110G U130C, for which the self-cleavage came out at 0.01.

Regarding A62U A95G U100C U122C, the self-cleavage came to 1.61. As for A63G U120C A134G, the self-cleavage amounted to 0.49. Next, A62U A78U A111G: 0.02; A64G U70A A129U: 0.72; A66G A86G A125G: 0.15.

With A66G A68G A111G, the self-cleavage stood at 0.06.

Regarding A64G A118G A126U, the self-cleavage was 2.68.

Consider A64U A89U U127C, for which the self-cleavage was determined as 1.15. In the case of A63G C76U U87A C112G, the self-cleavage is 0.01.

For the variant A62U A82G U87C, the self-cleavage was 0.13. A62U A68G A78G A91G U102A U131G: the self-cleavage came out at 0.02.

As for A63G U72C A82U, the self-cleavage was found to be 0.15. The same measure for A64U A66U A116G: 0.62. Consider A63G U102C U103C A111G, for which the self-cleavage amounted to 0.02. For A64G A89G U131C, the self-cleavage stood at 1.27.

As for A64G U87C U108C A116G, the self-cleavage was found to be 0.

On to A63G A67U U87C U103C U108C, for which the self-cleavage turned out to be 0.02. The same measure for A66G A86G A96G: 2.08; for A66G A98C A116G A135G: 0.86. In the case of A62U A69G A78G U132C, the self-cleavage amounted to 0.19. Next, A63G A78C U102C: 0.35. The same measure for A66G A116G A135G: 0.44. The same measure for A64G A69G U87A: 0.66. In the case of A66G A78G U122C, the self-cleavage was found to be 0.27.

As for A63G U87C A110G A118G, the self-cleavage amounted to 0.06.

A64U A66U A86G: the self-cleavage came out at 0.57.

Regarding A66G A82G A86G, the self-cleavage was found to be 0.11.

For A66G A96G C112U, the self-cleavage came out at 0.01. A64C A89G A95G U127C U131A: the self-cleavage turned out to be 1.21.

With A63G U108A A116G, the self-cleavage was 0.01. Next, A64C A92U U120C A125U: 0.12; A63G A69U A96G U127A: 2.17; A64U A66G A90G A135G: 0.69.

A63U A86G A92G: the self-cleavage came out at 0.97.

For A63G A94U A114G U120C U131C, the self-cleavage amounted to 0.07.

As for A62U A91G G106A A111G U132C, the self-cleavage was found to be 0. In the case of A63G A69U C76U A117G, the self-cleavage amounted to 0.1.

Take A64G A69G A90G U122C U133A A134G: the self-cleavage was determined as 1.91. Next, A64G U87C A111G A116G A135G: 0.01. Next, A63G A69G A135G: 2.43.
